This note sets out measurements from PubChem BioAssay AID1240 (Sanford-Burnham Center for Chemical Genomics, 2008).

Out of some 50,000 compounds screened, about 800 (1.6%) showed an effect of 50% or more. The list shows a part of the results.

This assay has as its target Bcl-2-like protein 10 (Homo sapiens) (UniProt Q9HD36). The assay is described as follows: TR3 peptide-Bcl-B binding displacers, biochemical primary FP assay, phenotype converters (AID 1240).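 Further: 0% = Bcl-B with tracer peptide and DMSO and 100% = tracer peptide lacking Bcl-B.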 The settings on record: GST-Bcl-B / FITC-TR3 peptide fluorescence polarization; stronger effect = higher value; compound at 3.75 mg/L.
Chain of UniProt Q9HD36 (Q9HD36 whole entry, looked up): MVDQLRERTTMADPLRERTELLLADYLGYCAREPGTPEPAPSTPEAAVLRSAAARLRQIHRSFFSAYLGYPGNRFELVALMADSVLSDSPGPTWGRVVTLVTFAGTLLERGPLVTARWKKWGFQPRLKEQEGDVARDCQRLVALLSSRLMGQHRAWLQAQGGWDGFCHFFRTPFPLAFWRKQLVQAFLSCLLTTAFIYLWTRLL
Turning to `O=C(Nc1ccc(NC(=O)c2cccc3c(Br)cccc23)cc1)c1ccco1`, the displacement was found to be 1.3%.

Take `O=c1cc(-c2ccccc2)nc2cc(-c3ccc(F)cc3)[nH]n12`: the displacement worked out at 13.8%.

As to `N#C/C(=C\c1ccc(C(=O)O)cc1)C(=O)NCc1ccco1`, the displacement is -8.1%.

As for `CCN(CC)c1ccc(C=C2C(=O)N(C)C(=O)N(C)C2=O)c(O)c1`, the displacement was found to be 14.7%.

Take `O=C(CSc1nnc(-c2ccc(Br)cc2)o1)OCc1ccccc1`: the displacement came out at 8.5%.

Consider `Cc1ccc(C)n1-c1ccc(Nc2ccccc2)cc1`, for which the displacement was determined as 7.1%.

Turning to `CCc1c(C)sc(NC(=O)c2ccccc2Cl)c1C(=O)OC(C)C`, the displacement was -11.2%.

With `Cc1cc(NS(=O)(=O)c2ccc(NC(=O)c3cc(-c4ccccc4C)nc4ccccc34)cc2)nc(C)n1`, the displacement is -11.3%.

Consider `COc1ccc(-c2cc(-c3ccccc3)nc(N/N=C/c3ccccc3O)n2)cc1`, for which the displacement was -8%.

Consider `CC(C)CNC(=O)c1cccc(NC(=O)/C=C/C(=O)O)c1`, for which the displacement came to 3.4%.

Take `C=CCc1cccc(/C=N/NC(=O)c2cc(C)[nH]n2)c1O`: the displacement was -2.4%.

`Cc1cc2nc(-c3ccc(NC(=S)NC(=O)c4ccco4)cc3)oc2cc1C`: the displacement is 10.2%.

In the case of `CC(=O)c1cc(C(C)(C)C)c(O)c(C(C)(C)C)c1`, the displacement was -7.3%.

In the case of `COc1ccc(/C=C/C(=O)Nc2ccc(OC)cc2OC)cc1`, the displacement is 4.9%.

Regarding `O=[N+]([O-])c1cccc(-c2ccc(C(=S)N3CCN(c4ccc(F)cc4)CC3)o2)c1`, the displacement is -13.6%.

As for `O=S(=O)(Nc1cccc(Br)c1)c1ccc2ccccc2c1`, the displacement is -6.5%.

For `Fc1ccc(-c2csc(N3CCOCC3)n2)cc1`, the displacement was -1.7%.

Turning to `COc1ccc2c(c1OC)C(=O)N(c1ccccc1Br)C2=O`, the displacement amounted to 1.9%.

As to `Cc1cc(NS(=O)(=O)c2ccc(NC(=O)C(C)C)cc2)nc(C)n1`, the displacement was -3.1%.

In the case of `O=S(=O)(c1ccc(Br)cc1)N1CCN(c2cccc(Cl)c2)CC1`, the displacement was -7.1%.

For the compound `CN(C)NC(=O)Nc1cccc(Cl)c1`, the displacement was found to be 0.2%.

`COc1ccccc1NC(=O)C1=C(C)NC(=S)NC1c1ccccc1Cl` (stereo unspecified): the displacement turned out to be 6.2%.

As for `Cc1ccc(NC(=O)CSc2nc(C)cc(C)n2)cc1`, the displacement was -8%.

Consider `CCN(CC)CCN1C(=O)C(O)=C(C(=O)/C=C/c2ccccc2)C1c1ccc(O)c(OC)c1` (stereo unspecified), for which the displacement was -6.9%.

Take `Cc1cccc(OCC(O)CN2C(=O)NC(C)(C)C2=O)c1` (stereo unspecified): the displacement was -5.8%.

As to `CC(=O)n1ccc(C(=O)Nc2ccc(Cl)c(Cl)c2)n1`, the displacement was -4.5%.

For `O=C1CN=C(Nc2nc3ccccc3o2)N1`, the displacement is -10.9%.

As for `COC(=O)c1ccc(-n2ncnc2-c2ccc(Cl)c([N+](=O)[O-])c2)cc1`, the displacement was 4%.

In the case of `CC1(CC(=O)NNC(=O)Nc2ccccc2)OCCCO1`, the displacement is -7.3%.

`COC(=O)c1ccccc1NC(=O)c1ccc2c(c1)OCCO2`: the displacement is -1.5%.

Consider `CCN(CC)c1ccc(N=Cc2cccc(O)c2O)cc1`, for which the displacement was -3%.
